The whole screen tested about 48,000 compounds, of which about 120 (0.25%) were called active. Not shown: some 4% with an inconclusive outcome. The call rests on the fitted dose curve; in most records, active means well fitted activation curve with a large enough effect; inconclusive means small, poorly fitted or top-dose-only effect, or another doubt; inactive means no such curve, though single readings can be large or run the other way. Some of the results follow.
Assay: Primary qHTS for Identification of Small Molecule Activators of Huntingtin-Antisense Promoter Activity; further: nearly all actives have a fitted effect of over 55% in size
Conditions: HEK293 HTT-AS promoter firefly luciferase reporter (activity 0% = vehicle and -100% = no light), 24 h; series mostly up to 57.5 µM; activity change, positive = activation: at the top concentration
Procedure, shortened: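 Luminescence was read after Dual-Glo reagent and a 10 min room-temperature incubation. Values were normalized to vehicle (0% activity) and zero RLU (-100% activity). Reporter HEK293 cells had been exposed to compounds (up to 57.5 uM final) for 24 h.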

Activity change, positive = activation, inactive:
CC(C)CCNC(=O)C(Cc1ccccc1)NS(=O)(=O)c1ccc2c(c1)c(=O)n(C)c(=O)n2C (stereo unspecified) -10.7%
CS(=O)(=O)N1CCc2cc(C(=O)Nc3ccc(C(F)(F)F)cc3)ccc21 -42.9%
Cc1cc(C)n(-c2nc3cc(Cl)ccc3nc2N2CCN(c3ccccc3F)CC2)n1 -14.3%
Cc1ccc(CNC(=O)CSc2nc3n[nH]c(C)c3c(=N)n2-c2ccccc2Cl)cc1 -10.4%
O=C(Nc1ccccc1C(=O)OCc1cc(=O)n2nc(C3CC3)sc2n1)c1cccc(F)c1 20.1%
CC(C)c1noc(-c2ccccc2OCC(=O)Nc2cccc([N+](=O)[O-])c2)n1 -6.42%
CC(C)Sc1ncc(Cl)c(C(=O)Nc2ccc(S(=O)(=O)N3CCCCC3)cc2)n1 -6.95%
CCN(CC)S(=O)(=O)c1ccc2c(c1)c(=O)c(C(=O)N1CCN(c3cc(Cl)ccc3C)CC1)cn2C 2.02%
Cc1ccc(NC(=O)C2CCN(S(=O)(=O)c3cccc4nonc34)CC2)cc1C -18%
Cc1ccc(-c2cc3nc(-c4ccccc4)cc(C(F)(F)F)n3n2)cc1 -6.03%
COc1cc(C2CC(=O)Oc3c2c(=O)[nH]c2ccccc32)cc(OC)c1OC (stereo unspecified) -13.3%
CCOc1ccc(Nc2c(S(=O)(=O)c3ccccc3)cnc3ccc(F)cc23)cc1 -32.7%
O=C(Oc1ccccc1F)c1nc(SCc2ccc(F)cc2)ncc1Cl 4.66%
COc1ccc(-c2nc3scc(CCNS(=O)(=O)c4ccc5c(c4)OCCO5)n3n2)cc1 -15.8%
CC(=O)N1CCc2cc(Br)cc(S(=O)(=O)CCC(=O)N3CCN(c4ccccc4Cl)CC3)c21 -17.4%
Cc1ccc(CN(C(=O)COc2cc(C)c(Cl)c(C)c2)c2ccccn2)o1 -25.7%
CCOc1ccc(-c2c(C)nn3c(C)c(C(=O)Nc4cc(C)cc(C)c4)cnc23)cc1OCC -12.3%
CC1=C(C(=O)Nc2ccccc2C)C(c2ccccn2)n2ncnc2N1 (stereo unspecified) -9.41%
CC(=O)N1CCc2cc(S(=O)(=O)NC(CC(C)C)C(=O)Nc3cc(C)cc(C)c3)ccc21 (stereo unspecified) -16.6%
CCC(=O)C1=C(c2ccc(C)cc2)N(C(=O)CC)n2c(nnc2C2CCCCC2)S1 -20.7%
Cc1c(Cl)cccc1NC(=O)CCOc1ccccc1 0.0583%
CCOc1ccc(Cn2c(=O)sc3ccccc32)cc1 -10.4%
Cc1cccn2c(=O)c3cc(C#N)c(=O)n(-c4nnc(SCc5ccc(Cl)cc5)s4)c3nc12 -13.5%
CC1=C(C(=O)Nc2ccc(Cl)cc2)C(c2ccccc2)n2ncc(C(=O)Nc3ccccc3)c2N1 (stereo unspecified) -55%
Cc1cc(C)c2c(c1)c(C)cc1nnc(SCc3ccccc3C#N)n12 -16.5%
Cc1ccc(NC(=O)CN2C(=O)COc3ccc(S(=O)(=O)NC4CCCC4)cc32)cc1N(C)C -22.1%

Source: PubChem BioAssay AID1508624 (National Center for Advancing Translational Sciences (NCATS), 2021)
